Data from the RNAGym collection of RNA variant scans (doi:10.1073/pnas.2313332121).
This sample is rich in variants without activity.

B1: TPR 5TU (parent)
chain: GGAUCUUCUCGAUCUAACAAAAAAGACAAAUCUGCCACAAAGCUUGAGAGCAUCUUCGGAUGCAGAGGCGGCAGCCUUCGGUGGCGCGAUAGCGCCAACGUUCUCAACUAUGACACGCAAAACGCGUGCUCCGUUGAAUGGAGUUUAUCAUG

Variants of: B1
Test: polymerase ribozyme fitness, log enrichment relative to wild type (log ratio); higher = more active; in vitro selection for triplet polymerase activity
Summary of the method: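 Mutant libraries of both subunits of a heterodimeric triplet polymerase ribozyme were PCR-built, transcribed, and selected once in triplicate, with frozen incubation at −7 °C and capture of gel-excised extended constructs on streptavidin beads before RT-PCR. Illumina sequencing of input and output libraries was filtered to genotypes with ≥10 input reads and ≥1 read per output. Fitness is the logarithm of genotype enrichment over wild-type enrichment, using inverse-variance-weighted replicate averages. The logarithm is base 2.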

Row | Variant | polymerase ribozyme fitness (log ratio)
1 | U53A C87G A89G C114U A115G G143C | ≤ -4.2
2 | U53A G80C C93U U148C | ≤ -4.2
3 | U53A U77C G92U U109C A122C G126U C149U | ≤ -4.2
4 | U53A C72U A97G U134A | -3.33
5 | C54A G80A C103G A110U A120U C132G | ≤ -4.2
6 | A52U U82G U135G A150U | -2.62
7 | U53G U55A C79U G86A G88A C103U U148C | ≤ -4.2
8 | A52C G70A U90G A106U | ≤ -4.2
9 | A52U G59A A98G C131U | -1.78
10 | A52G U53A C96A G133U | ≤ -4.2
11 | C54A C87U U148A G152C | ≤ -4.2
12 | C54G C95G G133A | ≤ -4.2
13 | U53A A66G G88U C93G C149G | ≤ -4.2
14 | A52G G88U U90G U145G | ≤ -4.2
15 | U53A C76A C132G U151C | ≤ -4.2
16 | A52C U56A G58A G67A G94A A97G | ≤ -4.2
17 | A52U U56A C79G C105A | ≤ -4.2
18 | A52U G59U A60C C93U | ≤ -4.2
19 | A52C U55A U82C | -2.36
20 | U53A G58C C75G C93A U148G | ≤ -4.2
21 | C54A C57U G86A A89G A120G G136C | ≤ -4.2
22 | U53A G59A G83A C116U C125A U146G | ≤ -4.2
23 | U53A G70A C99A G124C | ≤ -4.2
24 | A52C U53A G86A C87U C105A A106U | ≤ -4.2

Row | Variant | polymerase ribozyme fitness (log ratio)
25 | C54A C85U A121G U134A A138G A150U | ≤ -4.2
26 | A52C C87G G94U A97G A115C | ≤ -4.2
27 | A52G G88A C118A C123U G141C | ≤ -4.2
28 | A52U C96A | -2.92
29 | U53A C79A G86U A91C G128A | ≤ -4.2
30 | C54U C69A G71A U82G C99U A110U A122U | ≤ -4.2
31 | C54G C85A | -3.85
32 | A52C C76G G92U | ≤ -4.2
33 | A52C G62C A120G G140U | -4.1
34 | A52C G81A G92U C114A | ≤ -4.2
35 | A52C G59U C75U G84U C108A U109G U139A U145G | ≤ -4.2
36 | A52U A89G | -3.14
37 | A52G G84U U127G | ≤ -4.2
38 | U53A A97C A113G | -3.54
39 | C54A C63U C99A A115U A142U | ≤ -4.2
40 | C54A C95A G140A U146G | ≤ -4.2
41 | U53G C57A C85U A115U A121C | -2.93
42 | C54U A73G U102G A121U | ≤ -4.2
43 | C54U A89G C95A U148G | -4.18
44 | A52C U56A C85G U104G U127A | ≤ -4.2
45 | A52C U78C G117C C149G | ≤ -4.2
46 | U53A G88C A142U | ≤ -4.2
47 | U53A U61G C103U A107G | ≤ -4.2
48 | C54A G59U A91G U135A | -3.95

Row | Variant | polymerase ribozyme fitness (log ratio)
49 | U53G G58A G59A U82G G88U A142G | ≤ -4.2
50 | A52U C87A U102G | ≤ -4.2
51 | C54A A60U C72U G86C U102G A122U C149G | ≤ -4.2
52 | A52G U53A C75G C85U C131A | ≤ -4.2
53 | A52G C87U C108G G117A | ≤ -4.2
54 | A52C U55A U61A A98U C105U A106U | ≤ -4.2
55 | U53G C87G | ≤ -4.2
56 | C54G G80U A115G | ≤ -4.2
57 | U53A G84A U151C | ≤ -4.2
58 | C54A A122U C123A G133C G143C A150G | ≤ -4.2
59 | C54G U102C U144A | -3.91
60 | U53A C79U U101A | ≤ -4.2
61 | A52U U55A A66G C75G G84C U146G | ≤ -4.2
62 | A52U C54U G58C A91C G117C U148G | ≤ -4.2
63 | U53A C87A C95U C105U A122G G152U | ≤ -4.2
64 | A52G U53A A89C C93U | -2.02
65 | C54A C76A G84A | ≤ -4.2
66 | A52C U53A | -3.29
67 | A52U C87A | ≤ -4.2
68 | C54G U56A A107U | ≤ -4.2
69 | U53A U56A G68A C96A U104G C105G G117C G133A G136A U139G U145A A150C | ≤ -4.2
70 | C54U C75U C76G C93U U101G C105A G152C | ≤ -4.2
71 | C54A U109G A110C | ≤ -4.2
72 | A52C C103A A147C | ≤ -4.2

Row | Variant | polymerase ribozyme fitness (log ratio)
73 | C54G G58C C75G G94A | ≤ -4.2
74 | A52G G100U A106U | ≤ -4.2
75 | C54G G68C U109G C132U G133U | ≤ -4.2
76 | U53A G65C C87A G92A C116U | ≤ -4.2
77 | U53A G62A G86U | -2.24
78 | A52U C57U A98U C108G | ≤ -4.2
79 | C54A A66U G86C A89C C96A | ≤ -4.2
80 | A52G A60G A89G A113U C149G | ≤ -4.2
81 | A52G U53A G67U G81U C85U | ≤ -4.2
82 | U53G C93A | ≤ -4.2
83 | A52G C76A C96U A115G G117U | ≤ -4.2
84 | C54A U101G U134C U139G U144A | -1.85
85 | C54U C75A C96A U101G C103A U135C | ≤ -4.2
86 | U53A G58A A73U C75A A89U G92U A110U G126U G140A A147U | ≤ -4.2
87 | A52U C87A C93G | ≤ -4.2
88 | U53A U55A C57A C85G A122G | -2.51
89 | C54G G74C C93G | ≤ -4.2
90 | U53A C54U G80C G92U G126A C131A | ≤ -4.2
91 | C54A U56G A110U U145G | ≤ -4.2
92 | A52U C54A G70A A89G G92C A119C G126A G141A | ≤ -4.2
93 | U53A G100U | -3.41
94 | U53A C87U | -0.931
95 | A52G A66C G86C U127C | ≤ -4.2
96 | A52G G68U C99G | ≤ -4.2

Row | Variant | polymerase ribozyme fitness (log ratio)
97 | U53A U146G | -2.38
98 | U53A G80A U109A C123U A142G | -3.11
99 | U53A G68A A73G C85U C114U A115U | ≤ -4.2
100 | C54A A66C C79A A91G G94A A113C | ≤ -4.2
101 | A52G G88A C95U A122U G136C | ≤ -4.2
102 | A52C C75G C76G C85G | ≤ -4.2
103 | U53G A66G G94C G117U | ≤ -4.2
104 | C54U A91U U102G | ≤ -4.2
105 | U53G U90G G100A G124A U144C | ≤ -4.2
106 | A52U C54U G84A C85A G152U | ≤ -4.2
107 | A52C G88C C103A | ≤ -4.2
108 | C54A C87G A115U U148C | ≤ -4.2
109 | C54A U56A G68U U82G G83C G133C | ≤ -4.2
110 | U53G A115C G143A | -4.06
111 | U53G U56A U61A G88U G117A G124U | ≤ -4.2
112 | A52G A150G | -2.55
113 | A52G G84A G136A | -0.512
114 | A52G A107U A137C U144C | ≤ -4.2
115 | A52G A66C G88U C93G C95A G112A G133U G141U U146A | ≤ -4.2
116 | C54G C96A A98G A106U A138C U139C | ≤ -4.2
117 | C54A U55G G80C G84U C105G G126C | ≤ -4.2
118 | U53C G74A C79U G81U A91U G94C A97U | ≤ -4.2
119 | A52C U55G G58C G59A A66C | ≤ -4.2
120 | C54U C63U G88C A107U G152U | ≤ -4.2

Row | Variant | polymerase ribozyme fitness (log ratio)
121 | U53A C79U A89G U134G | ≤ -4.2
122 | U53A G58A G80A G81A C87U | -2.31
123 | C54G G68A C93A G117A U134A G141C | ≤ -4.2
124 | U53G G92U G143U U144A | -3.84
125 | A52G C63U C93U | -1.7
126 | A52U G83A C118U A121C | -2.33
127 | C54A C69A G84A G88A | ≤ -4.2
128 | U53A C95A C125U | -1.7
129 | U53A G59C C85U U135A | -0.238
130 | C54A A89C C132G | ≤ -4.2
131 | A52C G140C | ≤ -4.2
132 | C54G C85U A121U C131A G136U A137G | ≤ -4.2
133 | A52C G88A U146G A150C | ≤ -4.2
134 | C54G U109C C116U C131U A147U | -1.86
135 | U53A A97U C132U G133C U139C | ≤ -4.2
136 | U53A C75U | -1.34
137 | U53G U55A U78A C93U A142C U148C | ≤ -4.2
138 | U53A C87A C95U C99G C116A A150U | ≤ -4.2
139 | C54A C57U G59U | -0.27
140 | A52U G80A A89G G94A A110U U135G | ≤ -4.2
141 | U53A C79U C93U A97U C108U C149A | ≤ -4.2
142 | U53A C79A A91U | ≤ -4.2
143 | A52G U53A A73G C87G C93A A115U | ≤ -4.2
144 | A52G G136C A137C C149U U151G | ≤ -4.2

Row | Variant | polymerase ribozyme fitness (log ratio)
145 | A52G G84C G92U C96A A115G C149U | ≤ -4.2
146 | U53A G83C | -2.61
147 | C54A U61A G67A C75A G80U C96A | ≤ -4.2
148 | C54A A60G G65U A119U | ≤ -4.2
149 | C54A C76A G83U | ≤ -4.2
150 | U53G A66G C93G C108G | ≤ -4.2
151 | C54G C103A G140C | ≤ -4.2
152 | A52C G68A G81U G92A C125A G136U G140U U151A | ≤ -4.2
153 | A52U C96U A107G G136U | ≤ -4.2
154 | C54G C87A G100A A106G C118G A121G U151G | ≤ -4.2
155 | C54G C96A | -2.41
156 | C54U A64G G68A U77C G83A G88U U90G C132U U139G | ≤ -4.2
157 | U53A C54A G65U G86U A91U | ≤ -4.2
158 | A52G A66C C76G | ≤ -4.2
159 | C54A U55A G62U C85A A120U G140U | ≤ -4.2
160 | U53A G117A | -0.303
161 | U53G C57G G70C C79G A89U A91U C93U | ≤ -4.2
162 | A52U C87G C149G G152C | ≤ -4.2
163 | A52G G59C C75U C87U U90G C95A G117C A147U | ≤ -4.2
164 | A52U U139A U146C | ≤ -4.2
165 | U53A A66C | -4.19
166 | C54A C57G U90G U139A G140U U146A | ≤ -4.2
167 | C54U A60G C95U | -0.803
